Test results as given in PMC4336329 (PLoS ONE, 2015).
The whole screen tested about 310,000 compounds, of which about 14,000 (4.5%) showed an effect of 50% or more. The effect is printed as a negative number. Some of the results follow.

molecular target: human ether-à-go-go-related gene (hERG) potassium channel (human, UniProt Q12809); assay: primary screen, population patch clamp on CHO cells stably expressing hERG
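Further: peak tail current of the secondary pulse compared with the same well before compound.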

Sequence of human ether-à-go-go-related gene (hERG) potassium channel (Q12809 whole entry, looked up): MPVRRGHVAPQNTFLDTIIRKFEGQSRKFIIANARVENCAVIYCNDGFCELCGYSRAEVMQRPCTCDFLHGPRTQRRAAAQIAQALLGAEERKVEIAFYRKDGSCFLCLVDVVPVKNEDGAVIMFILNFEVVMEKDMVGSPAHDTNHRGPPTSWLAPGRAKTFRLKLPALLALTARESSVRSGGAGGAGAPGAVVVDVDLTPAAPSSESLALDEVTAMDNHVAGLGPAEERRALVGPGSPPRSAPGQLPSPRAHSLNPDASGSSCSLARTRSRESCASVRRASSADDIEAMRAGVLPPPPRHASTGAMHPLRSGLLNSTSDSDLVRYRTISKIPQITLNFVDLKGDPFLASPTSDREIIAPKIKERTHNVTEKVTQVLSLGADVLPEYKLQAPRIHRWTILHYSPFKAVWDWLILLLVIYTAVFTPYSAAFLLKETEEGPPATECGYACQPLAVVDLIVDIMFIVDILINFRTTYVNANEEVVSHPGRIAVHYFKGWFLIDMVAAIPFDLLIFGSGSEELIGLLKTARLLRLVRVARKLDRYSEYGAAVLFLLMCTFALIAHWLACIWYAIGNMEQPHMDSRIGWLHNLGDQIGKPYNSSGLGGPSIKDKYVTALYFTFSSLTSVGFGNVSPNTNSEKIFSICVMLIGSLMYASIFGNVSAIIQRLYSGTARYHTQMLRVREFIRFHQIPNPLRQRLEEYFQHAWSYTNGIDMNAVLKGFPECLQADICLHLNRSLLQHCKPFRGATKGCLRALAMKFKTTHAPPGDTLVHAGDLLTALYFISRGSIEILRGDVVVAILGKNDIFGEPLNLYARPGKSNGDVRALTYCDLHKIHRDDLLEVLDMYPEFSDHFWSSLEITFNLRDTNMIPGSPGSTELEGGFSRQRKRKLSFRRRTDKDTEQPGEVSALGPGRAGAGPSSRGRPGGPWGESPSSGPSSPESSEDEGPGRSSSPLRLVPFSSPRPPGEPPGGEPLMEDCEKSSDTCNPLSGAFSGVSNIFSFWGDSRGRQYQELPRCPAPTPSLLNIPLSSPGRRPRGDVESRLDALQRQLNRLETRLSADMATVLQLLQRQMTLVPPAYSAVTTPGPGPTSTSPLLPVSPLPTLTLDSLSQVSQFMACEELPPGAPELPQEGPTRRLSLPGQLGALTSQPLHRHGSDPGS

Structure (SMILES) | hERG current change (%, negative = inhibition) at 10uM
Cc1ccccc1C(=O)N1CCC(C(=O)NC2CCCC2)CC1 | 17.2%
Fc1cccc(-n2c(-c3cccs3)nc3nc4ccccc4nc32)c1 | 5.14%
COc1cccc(-c2ccc(SCC(=O)N3CCOCC3)nn2)c1 | -0.256%
C=CCSc1nc2c(cnn2-c2ccccc2)c(=O)n1N | -21.9%
COc1ccc(S(=O)(=O)N2CCOC2CNC(=O)C(=O)NCCc2ccc(OC)c(OC)c2)cc1C (centres unmarked) | -10.9%
Cc1nc(C(=O)NC2CC2)sc1C1(C)CC(c2cccc([N+](=O)[O-])c2)=NO1 (centres unmarked) | -41%
CC(=O)c1ccc(S(=O)(=O)N2CCN(CC(=O)NC(=O)NC3CCCCC3)CC2)cc1 | -16.8%
COc1ccc(OC)c(-c2csc(NC(=O)COC(=O)C3CCC3)n2)c1 | 1.93%
Cc1cc(C)n2nc(C(=O)OCC(=O)c3cc(C)n(C)c3C)nc2n1 | -3.7%
Cc1ccc(NC(=O)c2ccc(Cl)cc2[N+](=O)[O-])nc1 | 6.4%
CCCn1c(C(=O)c2ccccc2)nc2ccccc21 | -3.79%
CCc1cccc(NC(=O)Cn2c(-c3ccccc3)cc(C(C)=O)c2C)c1 | 11.9%
COc1ccc(C2C(C#N)=C(/N=C/N3CCN(C)CC3)OC3=C2C(=O)CC(C)(C)C3)cc1 (centres unmarked) | -16.1%
COc1cc(C2C(C#N)=C(N)Oc3cc(C)n(CCN4CCOCC4)c(=O)c32)cc(OC)c1OC (centres unmarked) | 20.7%
O=C(c1ccccc1)c1cc2ccccc2oc1=O | 1.38%
CCc1ccc(Nc2ccc3nonc3c2[N+](=O)[O-])cc1 | -5.54%
CC(=O)Nc1cccc(-n2nnc(SCC(N)=O)n2)c1 | 5.88%
Cn1c(-c2ccccc2)cnc1SCc1nc2ccccc2c(=O)[nH]1 | -59.9%
COc1ccc(NC(=O)c2cccc3c2C(=O)N(C2CCCCC2)C3)cc1 | 18.2%
Cc1ccccc1Nc1nc(N)nc(CSc2ccc(F)cc2)n1 | -50.4%
COc1ccc(N2C(=O)CCC(C(=O)N3CCC(C(N)=O)CC3)C2c2ccc(F)cc2)cc1 (centres unmarked) | -2.18%
CC(=O)Nc1ccc(NC2=CC(=O)c3ccccc3C2=O)cc1 | 11.6%

Structure (SMILES) | hERG current change (%, negative = inhibition) at 10uM
COc1cccc(C(=O)C2CCCN(CC3=Cc4cc(OC)ccc4OC3)C2)c1 (centres unmarked) | -56.6%
CC1(CCCN2C(=O)c3ccccc3C2=O)OCCO1 | 16.6%
CC1=C(C)CC(C(=O)Nc2ccc(C(=O)N3CCOCC3)cc2)C(C(=O)O)C1 (centres unmarked) | 28.6%
Cc1ccc(C(=O)/C=C/N(C)C)cn1 | 30.9%
CCOC(=O)c1sc(NC(=O)COc2ncnc3ccccc23)c(C(=O)OCC)c1C | -4.52%
CC(=O)N1CCN=C1SCc1ccccc1 | 19.1%
COc1ccc(N2CCN(S(=O)(=O)c3cccc4cccnc34)CC2)cc1 | -21.8%
CCCn1cc(CN2CCCC(CNC(=O)c3ccc(F)cc3)C2)c(C)n1 (centres unmarked) | -25.5%
CCNC(=O)CC1SC(=Nc2ccc(C)cc2)N(CC)C1=O (centres unmarked) | 8.86%
COC(C[C@@H]1O[C@@H]1C(=O)[C@H](C)OCc1ccccc1)OC | 5.62%
NC(=O)c1cc(S(=O)(=O)NCc2cccc(Br)c2)cs1 | -25.6%
Fc1ccc(/C=N/Nc2cc(N3CCOCC3)ncn2)cc1 | 15.4%
Cn1nc(C(F)(F)F)c(-c2ccccc2)c1NC(=O)CCC(=O)O | 11.9%
Cc1cc(-c2ccccc2)nc(Cl)c1C#N | 14.5%
CCOc1ccc2nc(N3CCCC(C(=O)NC4CCCC4)C3)sc2c1 (centres unmarked) | -0.903%
CC[n+]1c(/C=C/c2ccc(OC(C)=O)c(OC)c2)ccc2ccccc21.[I-] | -4.85%
C[N+]1(CC2COC3(CCCCC3)O2)CCCC1.[I-] (centres unmarked) | 9.24%
Cc1csc2nc(CNS(=O)(=O)c3cccnc3)cn12 | 3.04%
Cc1nc2c(=O)n(-c3ccc(F)c(Cl)c3)nc(C)c2s1 | 4.63%
CCOC(=O)N1CCN(S(=O)(=O)c2cc(Br)cnc2N)CC1 | -11.9%
COc1cc2c(cc1OC)CN(C(=O)C1CCN(S(=O)(=O)c3ccccc3F)CC1)CC2 | -8.59%
Cc1c(C2=CCN(S(=O)(=O)c3ccc(Cl)cc3)CC2)c2ccccc2n1C | 24.7%
